From PubChem BioAssay AID1476 (National Center for Advancing Translational Sciences (NCATS), 2009)
The campaign covered roughly 200,000 compounds. About 4,500 (2.2%) were called active. Inconclusive results, whose numbers are uncertain, are shown with a selection of clear calls. Calls come from the whole dose curve; as a rule, active = well fitted inhibition curve with a large enough effect; inconclusive = small, poorly fitted or top-dose-only effect, or effect the other way; inactive = flat fitted curve, though single readings scatter. Potencies beside an inconclusive call are fits to weak or partial responses and may not hold up.

target: Cruzipain (Trypanosoma cruzi) (UniProt P25779); experiment: qHTS Assay for Promiscuous and Specific Inhibitors of Cruzain (without detergent); settings: purified cruzain, Z-FR-AMC fluorescence, no detergent; note: nearly all actives have a fitted effect of over 40% in size;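 for max response, negative = inhibition: plate controls were enzyme without inhibitor for no effect and buffer without enzyme for full effect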
Outline: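 Purified cruzain at 1.5 nM, pre-incubated 15 min with compound at room temperature in 100 mM sodium acetate pH 5.5, 5 mM DTT, 0.00005% Triton X-100. Reaction started with 2 uM Z-FR-AMC; AMC fluorescence increase over 60 s gives rate.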
Potency is the fitted concentration of half-maximal effect; tags give direction and shape of the fitted curve.

Chain of UniProt P25779 (P25779 whole entry, looked up): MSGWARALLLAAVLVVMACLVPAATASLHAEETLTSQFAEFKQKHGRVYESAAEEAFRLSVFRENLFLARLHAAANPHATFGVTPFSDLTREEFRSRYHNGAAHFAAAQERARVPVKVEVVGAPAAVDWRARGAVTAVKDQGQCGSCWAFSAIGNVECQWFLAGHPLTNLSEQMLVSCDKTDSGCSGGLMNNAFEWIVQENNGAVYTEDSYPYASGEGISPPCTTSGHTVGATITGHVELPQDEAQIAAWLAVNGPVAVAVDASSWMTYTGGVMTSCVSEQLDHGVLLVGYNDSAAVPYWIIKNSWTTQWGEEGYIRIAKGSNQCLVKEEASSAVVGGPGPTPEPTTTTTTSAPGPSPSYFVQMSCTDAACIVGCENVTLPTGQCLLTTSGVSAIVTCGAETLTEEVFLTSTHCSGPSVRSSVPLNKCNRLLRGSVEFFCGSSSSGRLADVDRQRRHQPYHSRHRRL

| SMILES | max response, negative = inhibition | Potency |
| --- | --- | --- |
| COc1cc(NC(=O)Cn2c(=O)n(Cc3ccco3)c(=O)c3sc4ccccc4c32)cc(OC)c1 | inactive: 4.56% | – |
| CCOc1ccc(Br)cc1S(=O)(=O)Nc1ccccc1N1CCOCC1 | – | inconclusive: 39.8 µM [activator, single point] |
| CCC(C(=O)Nc1cc(OC)cc(OC)c1)n1nc(-c2ccc(C)c(C)c2)ccc1=O (configuration not stated) | – | inconclusive: 25.1 µM [activator, single point] |
| COC(=O)c1c(N2C(=O)[C@H]3[C@@H](C2=O)[C@]2(C(=O)Nc4c(C)cccc42)N2CCC[C@@H]32)sc(C)c1C | – | inconclusive: 31.6 µM [activator, single point] |
| CCCC1=Nc2cc(C(=O)NCc3ccc(OC)cc3)ccc2Sc2ccc(C)cc21 | – | inconclusive: 20 µM [inhibitor, single point] |
| Cc1ccc(-c2nc3ccccc3s2)cc1NC(=S)NC(=O)c1ccccc1 | – | inconclusive: 39.8 µM [inhibitor, single point] |
| O=C(CCc1nc(CN2CCN(S(=O)(=O)c3ccc(Cl)cc3)CC2)no1)N1CCCCC1 | – | inconclusive: 31.6 µM [activator, single point] |
| Cc1ccc2nc(NC(=O)CSCC(=O)OCC(=O)c3ccc(Br)cc3)sc2c1 | – | inconclusive: 15.8 µM [inhibitor, partial curve] |
| CC1CC2C3CC(F)C4=CC(=O)C=C[C@@]4(C)[C@@]3(F)C(O)C[C@]2(C)[C@]1(O)C(=O)COC(=O)C(C)(C)C (some centres not stated) | inactive: 1.83% | – |
| COCCCN1CCc2nc(SCC(=O)Nc3ccc(C)c(Cl)c3)[nH]c(=O)c2C1 | inactive: 0.945% | – |
| O=C(Nc1ccccc1)c1ccc2nc(-c3ccco3)c(-c3ccco3)nc2c1 | – | inconclusive: 12.6 µM [inhibitor, partial curve] |
| Cc1ccc(OCc2nnc(NC(=O)c3ccco3)s2)cc1 | inactive: -11.4% | – |
| COc1cc(/C(C#N)=C/c2cccc3ccccc23)c([N+](=O)[O-])cc1OC | – | inconclusive: 39.8 µM [inhibitor, single point] |
| O=C(Nc1nc(-c2cc3ccccc3oc2=O)cs1)c1ccc(Br)o1 | – | inconclusive: 39.8 µM [inhibitor, single point] |
| CCOC(=O)c1cc(C#N)c(SCc2cccc3ccccc23)nc1C | – | inconclusive: 31.6 µM [inhibitor, single point] |
| Cc1cc(C)n(/N=C/c2cccc([N+](=O)[O-])c2)c(=O)c1 | inactive: -13% | – |
| O=C(O)c1ccc(COc2ccc3ccccc3c2/C=C2/NC(=O)N(c3ccccc3)C2=O)cc1 | – | inconclusive: 39.8 µM [activator, single point] |
